According to the supplement of paper PMC12217912:
Some of the results follow. Sequences were assembled here from the parent chain. Values near 0.05 are background.

B1: TEV protease; numbered along this chain (parent)
chain: MGESLFKGPRDYNPISSSICHLTNESDGHTTSLYGIGFGPFIITNKHLFRRNNGTLVVQSLHGVFKVKDTTTLQQHLVDGRDMIIIRMPKDFPPFPQKLKFREPQREERICLVTTNFQTKSMSSMVSDTSCTFPSGDGIFWKHWIQTKDGQCGSPLVSTRDGFIVGIHSASNFTNTNNYFTSVPKNFMELLTNQEAQQWVSGWRLNADSVLWGGHKVFMVKPEEPFQPVKEATQL

Variants of: B1
Assay: raw area under fraction-flipped curve 0-4 h after induction (AUC4h, not background-subtracted), DNA-recorder readout of cleavage of the substrate (dimensionless); higher = more cleavage of the substrate by the protease variant
Conditions: temperature: 34 °C; time window: 0-4 h after rhamnose induction
Protocol: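 In vivo DNA recorder in E. coli TOP10(DE3) ΔrhaA at 34 °C. Each TEVp single-site mutant (parent TEVp 0) is paired with a single-site variant of the 7-mer TEVs (canonical ENLYFQ|S). The substrate sits between flexible linkers in a Bxb1-sfGFP-TEVs-SsrA fusion, so cleavage stabilises Bxb1 and speeds flipping of a recombination array, read by NGS. The value is the raw area under the fraction-flipped curve over 0-4 h after rhamnose induction (AUC4h), with ≥20 reads per time point. It is not background-subtracted; inactive controls average about 0.047.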
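Further: Bxb1 expression induced with 0.2% (w/v) L-rhamnose at OD600 near 0.5, cultures sampled hourly, flipped fraction per protease–substrate barcode pair counted by paired-end Illumina sequencing.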

Variant | area with substrate ENLCFQS | area with substrate ENLDFQS | area with substrate ENLFFQS | area with substrate ENLGFQS | area with substrate ENLHFQS | area with substrate ENLIFQS | area with substrate ENLLFQS | area with substrate ENLMFQS | area with substrate ENLNFQS | area with substrate ENLPFQS | area with substrate ENLQFQS | area with substrate ENLKFQS | area with substrate ENLSFQS | area with substrate ENLRFQS | area with substrate ENLVFQS | area with substrate ENLWFQS | area with substrate ENLAFQS | area with substrate ENLEFQS | area with substrate ENLTFQS
I43W | 0.0526 | 0.0564 | 0.0422 | 0.0442 | 0.0362 | 0.0544 | 0.0377 | 0.0426 | 0.053 | 0.0558 | 0.0586 |  |  |  |  |  |  |  | 
T129C | 0.0302 | 0.0623 | 0.0692 | 0.0473 | 0.0628 | 0.0697 |  |  | 0.0537 | 0.0523 | 0.0639 | 0.0757 | 0.0679 |  |  |  |  |  | 
T129F | 0.0636 |  |  |  |  | 0.078 |  |  | 0.0616 | 0.0662 |  | 0.0704 | 0.0625 | 0.0748 |  |  |  |  | 
T44H | 0.0339 | 0.0441 | 0.066 |  | 0.0439 | 0.0408 | 0.0716 | 0.0594 | 0.0513 | 0.0433 | 0.0615 | 0.0742 | 0.0527 |  | 0.0645 | 0.0507 |  |  | 
Q234L | 0.0912 |  | 0.0844 | 0.0833 | 0.0896 | 0.0748 |  | 0.0775 | 0.064 | 0.0586 | 0.0706 | 0.0724 | 0.0515 | 0.0589 |  | 0.0647 | 0.0631 | 0.0662 | 
Q234F |  | 0.0653 | 0.0834 |  |  | 0.0792 | 0.0647 | 0.0581 | 0.0682 |  |  | 0.069 |  | 0.0861 | 0.0843 |  | 0.0581 |  | 0.0748
I15H | 0.0714 | 0.0684 | 0.0992 |  | 0.0653 | 0.0692 | 0.0619 | 0.0909 | 0.0643 | 0.0608 | 0.0823 | 0.0804 | 0.0762 |  | 0.0825 |  |  | 0.0562 | 
K230I | 0.0897 | 0.0708 | 0.0727 | 0.115 | 0.0693 |  | 0.082 |  | 0.0775 | 0.0411 | 0.0728 | 0.0824 |  | 0.0808 |  |  | 0.0533 | 0.0663 | 
K230P |  | 0.06 | 0.0753 | 0.061 |  | 0.0872 |  |  | 0.062 |  | 0.0712 | 0.0873 | 0.0328 | 0.0782 |  | 0.0779 | 0.0509 | 0.0614 | 0.0748
R10H | 0.065 | 0.0666 | 0.0815 | 0.071 | 0.0617 | 0.0717 |  | 0.0721 | 0.0718 | 0.0475 | 0.0589 | 0.0619 | 0.0608 |  |  | 0.0814 |  |  | 0.0633
T233R | 0.0686 | 0.0576 | 0.0868 |  | 0.0874 | 0.0861 | 0.0548 |  | 0.068 | 0.0698 |  | 0.0729 | 0.0661 |  | 0.0845 |  | 0.0948 | 0.0689 | 0.0742
G28F | 0.0598 |  | 0.0878 |  | 0.092 | 0.093 |  |  | 0.063 | 0.0619 |  | 0.0622 | 0.0649 |  | 0.0643 | 0.0705 |  | 0.0652 | 
E25L | 0.0782 | 0.0618 | 0.0881 | 0.0777 | 0.0679 | 0.0724 | 0.0936 |  | 0.0574 | 0.0564 | 0.076 | 0.0824 | 0.0663 | 0.089 |  | 0.0572 |  | 0.0691 | 
I42Q | 0.04 | 0.0439 | 0.045 | 0.0516 | 0.0467 | 0.0465 |  |  | 0.0545 | 0.0368 | 0.0332 | 0.0412 | 0.0364 |  |  |  |  |  | 
R51F | 0.0744 | 0.0671 | 0.0911 |  | 0.0768 | 0.0984 | 0.086 |  | 0.0681 | 0.0626 | 0.0702 | 0.0819 | 0.0246 |  | 0.0941 |  |  |  | 
S154M | 0.0537 | 0.0658 | 0.0755 | 0.0668 | 0.0577 | 0.0713 |  |  | 0.0589 |  |  | 0.0588 | 0.0577 |  |  | 0.0531 |  |  | 
G8Q | 0.0648 | 0.0593 | 0.0832 |  |  |  | 0.0811 |  |  |  |  | 0.0869 |  |  |  |  |  |  | 
K46I | 0.0516 | 0.0601 |  |  | 0.0597 | 0.0656 | 0.0636 | 0.063 | 0.0633 | 0.0526 | 0.0675 | 0.0705 | 0.0696 | 0.0624 | 0.0573 | 0.068 |  | 0.0568 | 
S127M | 0.0706 | 0.0494 | 0.0895 | 0.0766 | 0.0611 | 0.0782 | 0.068 | 0.0705 | 0.0614 | 0.0716 |  | 0.0923 | 0.0599 | 0.0995 | 0.105 | 0.0707 |  | 0.0608 | 
D79H | 0.0642 | 0.0887 | 0.0896 |  |  |  | 0.112 | 0.0808 | 0.0639 | 0.038 |  | 0.0615 | 0.0748 |  | 0.13 |  |  |  | 
G37V | 0.0594 | 0.0684 | 0.0821 | 0.0602 | 0.0619 | 0.0726 | 0.0578 | 0.0596 | 0.0455 | 0.0563 |  | 0.0564 | 0.0551 | 0.0671 | 0.0586 | 0.0567 |  | 0.0559 | 
K100F | 0.0669 | 0.0634 | 0.0835 |  |  | 0.0761 | 0.0653 |  | 0.0643 |  |  | 0.08 | 0.0608 | 0.0695 |  | 0.0648 |  | 0.0596 | 
K100I | 0.0885 |  | 0.0821 |  | 0.0701 | 0.0675 |  | 0.0668 | 0.0583 | 0.0597 |  | 0.0752 |  | 0.112 |  |  |  | 0.0695 | 
S123G | 0.0694 |  | 0.0947 | 0.0619 | 0.0975 | 0.0793 | 0.0688 |  | 0.0774 | 0.0403 | 0.0675 | 0.0714 |  | 0.0679 |  | 0.0651 |  | 0.0574 | 
T114K | 0.0932 |  |  |  | 0.0783 | 0.118 | 0.0658 |  | 0.0794 |  |  | 0.0859 |  | 0.083 |  |  |  |  | 
G63H | 0.0655 | 0.0687 | 0.0826 |  | 0.0713 |  |  |  |  | 0.047 | 0.0699 | 0.0722 | 0.0494 | 0.0786 |  |  |  |  | 
N52D | 0.0688 | 0.0559 | 0.0698 |  | 0.0779 | 0.0714 |  | 0.0641 | 0.0803 | 0.0702 |  | 0.0636 | 0.0612 | 0.0496 | 0.0794 |  |  | 0.0755 | 0.0528
G39N | 0.0451 | 0.0379 | 0.037 | 0.0458 | 0.0406 | 0.0416 | 0.037 |  | 0.0458 | 0.0463 | 0.0448 |  | 0.0438 | 0.0621 | 0.0468 | 0.0319 |  | 0.0401 | 
